About 450 (0.94%) of roughly 48,000 compounds were called active. Roughly 19% stayed inconclusive and do not appear here. Calls come from the whole dose curve; as a rule, active = well fitted inhibition curve with a large enough effect; inconclusive = small, poorly fitted or top-dose-only effect; inactive = no such curve, though single readings can be large or run the other way. The list shows a part of the results.
Assay: Primary qHTS for Identification of Small Molecule Inhibitors of Huntingtin Promoter Activity; note: nearly all actives have a fitted effect of over 50% in size
Details: HEK293 HTT promoter firefly luciferase reporter (activity 0% = vehicle and -100% = no light), 24 h; series mostly up to 57.5 µM; activity change, negative = inhibition: at the top concentration
Method in brief: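 Firefly luciferase signal from promoter-reporter HEK293 cells was scaled between vehicle (0%) and zero RLU (-100%). Compounds were tested at final concentrations of up to 57.5 uM over 24 h at 37 degrees C. PTC124 at 50 uM final served as control inhibitor.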

SMILES | activity change, negative = inhibition
O=C(Nc1ccccc1)N(Cc1cccs1)c1ccc(F)cc1 | inactive: -22%
CCOC(=O)CSc1nc2cc3c(cc2c(=O)n1CCCC(=O)NCCc1ccc(OC)c(OC)c1)OCO3 | inactive: -15.4%
C[n+]1ccccc1/C=N/O | inactive: 1.65%
COc1cccc(CNC(=O)c2cc(S(=O)(=O)N3CCCCCC3)cn2C)c1 | inactive: -18.5%
CCOC(=O)c1sc(N2C(=O)c3oc4ccc(C)cc4c(=O)c3C2c2ccccc2F)nc1C (centres undefined) | inactive: 5.42%
CCc1cccc(NS(=O)(=O)c2ccc3c(c2)n(C)c(=O)c(=O)n3C)c1 | inactive: -28.2%
Cc1ccc(CNC(=O)CCCn2nc(C)c3c(C)n(-c4ccccc4)nc3c2=O)cc1 | inactive: -21.7%
CCc1nonc1NC(=O)c1oc2ccc(C)cc2c1C | inactive: 59.9%
CCOc1ccc(N2C(=O)c3n[nH]c(-c4cccs4)c3C2c2cccc(F)c2)cc1 (centres undefined) | inactive: -14.3%
CCOC(=O)c1ccc(-n2c(-c3ccc(C)cc3)c(C)n3c4c(=O)n(C)c(=O)n(C)c4nc23)cc1 | inactive: 0.588%
COc1ccc(-c2cc(-c3ccc4c(c3)NC(=O)CO4)nc3c2COc2ccc(F)cc2-3)cc1 | inactive: -7.92%
CN(C)c1ccc(-c2nc(-c3ccco3)no2)cc1[N+](=O)[O-] | inactive: -17.8%
CCN(CC)S(=O)(=O)c1ccc2c(c1)N(CC(=O)N1CCN(c3cccc(OC)c3)CC1)C(=O)CO2 | inactive: -15.7%
CCOc1ccccc1CNC(=O)c1ccc2c(c1)nc1n2CCCCC1 | inactive: 29.4%
Cc1c(Nc2nc3ccccc3n3c(C)nnc23)cccc1C(=O)O | inactive: -8.55%
Cc1ccc(NC(=O)N2CC3CCCN3c3ccccc32)c(C)c1 (centres undefined) | inactive: -9.35%
Cc1ccc(-c2cc(C(=O)N(Cc3ccc(C(C)(C)C)cc3)Cc3ccco3)no2)cc1 | inactive: 2.99%
COc1ccc(NC(=O)c2ccco2)cc1NC(=O)COc1ccc(Cl)c(C)c1 | inactive: -37.6%
Cc1cc(N2CCN(c3cccc(C(F)(F)F)c3)CC2)n2nc(-c3ccccc3)nc2n1 | inactive: 18.9%
CCc1cccc(C)c1NC(=O)CCn1c(=O)c2cccn2c2ccccc21 | inactive: 1.36%
CC(C)C(=O)NCC1(N(C)C)CCCCC1 | inactive: 2.39%
CCOc1ccc(C(=O)Nc2c(C(=O)N3CCN(c4ccccc4F)CC3)oc3ccccc23)cc1 | inactive: 6.97%
Cc1ccc(NS(=O)(=O)c2cc3[nH]c(=O)c(=O)[nH]c3cc2C)cc1Cl | inactive: -3.21%
COc1ccc(N2CCN(Cc3cccn3-c3nnc(N4CCN(C5CCCCC5)CC4)s3)CC2)cc1 | inactive: -34.4%
CCn1cc(C(=O)N2CCN(c3cc(C)ccc3C)CC2)c(=O)c2cc(S(=O)(=O)N3CCCCC3)ccc21 | inactive: -16.2%

SMILES | activity change, negative = inhibition
Cc1nc(SC(C)C(=O)Nc2ccccc2Cl)cc(-c2ccccc2)n1 (centres undefined) | inactive: -25.8%
Cc1ccc([N+](=O)[O-])cc1S(=O)(=O)N1CCn2cccc2C1c1ccccc1 (centres undefined) | inactive: 9.19%
CC(Oc1ccc(Br)cc1)C(=O)Nc1ncn[nH]1 (centres undefined) | inactive: -6.54%
COc1ccc(NC(=O)CCc2nnc3n(Cc4ccccc4Cl)c(=O)c4ccccc4n23)cc1 | inactive: -4.7%
Cc1ccc2nc(-c3ccc(Cl)c(NC(=O)COc4ccc(C(C)C)cc4)c3)oc2c1 | inactive: 17.1%
Cc1ccc(C)c(NC(=O)C2CCCN(S(=O)(=O)c3cn(C)cn3)C2)c1 (centres undefined) | inactive: -5.45%
CC(N)C(=O)OC(C)(C)Cc1ccc(Cl)cc1 (centres undefined) | inactive: -9.22%
COc1ccc(Br)cc1CNC(=O)CCSCc1ccc(C)cc1 | inactive: -29.3%
Cc1ccc(S(=O)(=O)N2CCN(Cc3nc4ccc(C)cc4o3)CC2)cc1 | inactive: -17.1%
O=C(Cn1cc(S(=O)(=O)c2ccccc2)c(=O)c2cc3c(cc21)OCO3)Nc1ccc(Cl)cc1 | inactive: -25.4%
CCNc1cc(N2CCN(C3CCCCC3)CC2)c2noc3c2c1C(=O)c1ccccc1-3 | inactive: -2.73%
CSc1ccc(CCNC(=O)c2ccc(-c3nc(COc4ccc(C)cc4)c(C)o3)cc2)cc1 | inactive: -11.2%
CCOC(=O)CSc1nc2ccccc2c(=O)n1-c1cccc(C)c1 | inactive: -17.8%
O=C(O)Cc1ccc(NC2(c3ccccc3)C(=O)c3ccccc3C2=O)cc1 | inactive: -1.37%
COC(=O)c1ccccc1NC(=O)C1=C(C)C(=O)OC12CCCCCC2 | inactive: -5.94%
COc1ccc(C(=O)Nc2ccccc2SCc2cc(=O)c3cccc(C)c3[nH]2)cc1 | inactive: 7.27%
O=C(O)Cc1sc(Nc2ccccc2)nc1-c1ccccc1 | inactive: 53.2%
COc1ccc(NC(=O)CSc2nc3ccccc3n2CC(=O)N2CCCCC2C)cc1 (centres undefined) | inactive: -24.1%
COc1ccc(-c2nc3ccc(C4=NNC(=O)CC4C)cc3[nH]2)cc1 (centres undefined) | inactive: 28.5%
Cc1nn(CCC(=O)NCc2ccc(Cl)cc2)c(=O)c2nn(-c3ccccc3)c(C)c12 | inactive: -18.7%
CCOc1cccc(CC(=O)NCc2ccc3c(c2)CCN3C(C)=O)c1OCC | inactive: -6.35%
CCC(C)NC(=O)CCc1c(C)nc2c(c(C)nn2-c2ccc(C)cc2)c1C (centres undefined) | inactive: -13.4%
COCC(C)NC(=O)c1cc2c(=O)n3cccc(C)c3nc2s1 (centres undefined) | inactive: 26.9%
O=[N+]([O-])c1cc(-c2nc(-c3ccco3)no2)ccc1NCc1ccccc1 | inactive: 14.6%

Reference: PubChem BioAssay AID1508623 (National Center for Advancing Translational Sciences (NCATS), 2021)
